# Source: a collection of fitness landscapes (doi:10.1016/j.celrep.2020.107928)
# Whole data set: some 81,000 sequences, median “one-hybrid fitness for binding parS DNA” near -0.17, cut for the highest 2% near 0.51. Some of the results follow.
# B1: Caulobacter ParB omega fusion; a variant is named by its letters at X, in order, B8GW30 (parent)
# chain: MESVVVGEPGMSEGRRGLGRGLSALLGEVDAAPAQAPGEQLGGSREAPIEILQRNPDQPRRTFREEDLEDLSNSIREKGVLQPILVRPSPDTAGEYQIVAGERAWRAAQRAGLKTVPIMVRELDDLAVLEIGIIENVQRADLNVLEEALSYKVLMEKFERTQENIAQTIGKSXSHVANXMRLLXLPDEVQSYLVSGELTAXHARAIAAAADPVALAKQIIEGGLSVRETEALARKAPNLSAGKSKGGRPPRVKDTDTQALESDLSSVLGLDVSIDHRGSTGTLTITYATLEQLDDLCNRLTRGI
# Variants of: B1
# Assay: one-hybrid fitness for binding parS DNA (scaled: cognate 1, non-cognate 0); higher = stronger binding
# Settings: with parS DNA site
# Method in brief: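 Caulobacter ParB libraries with four specificity codons randomised were screened by bacterial one-hybrid selection in the E. coli USO strain, using a HIS3 reporter whose site lies 19 bp from the promoter. Selection ran for 48 hours at 37°C on M9 lacking histidine, with 0.1 mM IPTG and 5 mM 3-AT. Plasmids were Illumina-sequenced before and after selection, three replicate libraries were pooled, and variants with under 10 reads were dropped. Fitness is the log change in each variant's read ratio to wild type, rescaled against the cognate and non-cognate sites.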
row,Variant,one-hybrid fitness for binding parS DNA
1,NYHR,≤ 0.2
2,QHQA,≤ 0.2
3,HNQT,≤ 0.2
4,QEFR,≤ 0.2
5,AWLG,≤ 0.2
6,SRLE,≤ 0.2
7,PCKS,≤ 0.2
8,MQWT,≤ 0.2
9,RMIL,≤ 0.2
10,NPPP,≤ 0.2
11,MLYG,≤ 0.2
12,WRYR,≤ 0.2
13,GNTR,≤ 0.2
14,NNNK,≤ 0.2
15,VDEN,≤ 0.2
16,ATLL,≤ 0.2
17,THYP,≤ 0.2
18,RPAR,≤ 0.2
19,RFLY,0.432
20,GRAH,≤ 0.2
21,PRSG,≤ 0.2
22,SPKI,≤ 0.2
23,HTRF,≤ 0.2
24,WWSD,≤ 0.2

row,Variant,one-hybrid fitness for binding parS DNA
1,GAPC,≤ 0.2
2,DGFC,≤ 0.2
3,QHYR,≤ 0.2
4,QNLN,≤ 0.2
5,AHQG,≤ 0.2
6,CIKG,≤ 0.2
7,RTYC,0.982
8,MPYS,≤ 0.2
9,HSIV,≤ 0.2
10,NHHL,≤ 0.2
11,ALYL,≤ 0.2
12,PMPP,≤ 0.2
13,VGWY,≤ 0.2
14,QHSI,≤ 0.2
15,HHGS,≤ 0.2
16,PDNI,≤ 0.2
17,YHNS,≤ 0.2
18,TQTA,≤ 0.2
19,VNNY,≤ 0.2
20,LVMN,≤ 0.2
21,FDLD,≤ 0.2
22,WGDM,≤ 0.2
23,LCSR,≤ 0.2
24,GRRD,≤ 0.2

row,Variant,one-hybrid fitness for binding parS DNA
1,ALLP,≤ 0.2
2,LDKN,≤ 0.2
3,EPPG,≤ 0.2
4,NSNW,≤ 0.2
5,IMTT,≤ 0.2
6,MTPD,≤ 0.2
7,KIHS,≤ 0.2
8,RKYS,0.857
9,FTPG,≤ 0.2
10,KSST,≤ 0.2
11,LDHE,≤ 0.2
12,YRRI,≤ 0.2
13,SAMY,≤ 0.2
14,SWRK,≤ 0.2
15,QPAH,≤ 0.2
16,YVIT,≤ 0.2
17,DSAA,≤ 0.2
18,KHVN,≤ 0.2
19,FYAE,≤ 0.2
20,FVCV,≤ 0.2
21,KPWC,≤ 0.2
22,PRQF,≤ 0.2
23,QVSL,≤ 0.2
24,GRYA,≤ 0.2

row,Variant,one-hybrid fitness for binding parS DNA
1,FRDT,≤ 0.2
2,FASG,≤ 0.2
3,RSPA,≤ 0.2
4,FRYR,≤ 0.2
5,SGSN,≤ 0.2
6,VQCR,≤ 0.2
7,MTIR,≤ 0.2
8,WRRH,≤ 0.2
9,VHTC,≤ 0.2
10,PKST,≤ 0.2
11,SCLS,≤ 0.2
12,SLVE,≤ 0.2
13,NLKV,≤ 0.2
14,PKDH,≤ 0.2
15,RAIL,≤ 0.2
16,EKNT,≤ 0.2
17,QEPA,≤ 0.2
18,CKMF,≤ 0.2
19,DGKT,≤ 0.2
20,QHVM,≤ 0.2
21,FLLS,≤ 0.2
22,RCNQ,≤ 0.2
23,KIDY,≤ 0.2
24,MDHW,≤ 0.2

row,Variant,one-hybrid fitness for binding parS DNA
1,CVMS,≤ 0.2
2,APCF,≤ 0.2
3,MYSC,≤ 0.2
4,QDHK,≤ 0.2
5,RSVY,0.37
6,ENLT,≤ 0.2
7,TVKW,≤ 0.2
8,YFLG,0.212
9,GNRR,≤ 0.2
10,NSHG,≤ 0.2
11,WYST,≤ 0.2
12,MEKC,≤ 0.2
13,DHLT,≤ 0.2
14,SMVT,≤ 0.2
15,TRAL,≤ 0.2
16,QAII,≤ 0.2
17,GPSI,≤ 0.2
18,KKRH,≤ 0.2
19,IRYL,≤ 0.2
20,MVAS,≤ 0.2
21,HHLN,≤ 0.2
22,LPLA,≤ 0.2
23,MKKN,≤ 0.2
24,RYTN,0.429

row,Variant,one-hybrid fitness for binding parS DNA
1,SWHW,≤ 0.2
2,IRPC,≤ 0.2
3,MKVG,≤ 0.2
4,TTVY,≤ 0.2
5,TDAL,≤ 0.2
6,PNDG,≤ 0.2
7,WITN,≤ 0.2
8,DQNR,≤ 0.2
9,STQR,≤ 0.2
10,RWTE,≤ 0.2
11,RKMF,≤ 0.2
12,AWMG,≤ 0.2
13,TKGA,≤ 0.2
14,QMQD,≤ 0.2
15,KITG,≤ 0.2
16,NTHN,≤ 0.2
17,QMMV,≤ 0.2
18,WLRA,≤ 0.2
19,RMHL,≤ 0.2
20,MVCP,≤ 0.2
21,MAQG,≤ 0.2
22,TEES,≤ 0.2
23,GKSV,≤ 0.2
24,QDEW,≤ 0.2

row,Variant,one-hybrid fitness for binding parS DNA
1,FCST,≤ 0.2
2,RYHP,≤ 0.2
3,NDRF,≤ 0.2
4,HRNM,≤ 0.2
5,VDHC,≤ 0.2
6,QMGL,≤ 0.2
7,RAWP,≤ 0.2
8,KFDS,≤ 0.2
9,KHWR,≤ 0.2
10,MLWS,≤ 0.2
11,FNVG,≤ 0.2
12,LVQY,≤ 0.2
13,LVGY,≤ 0.2
14,LLHV,≤ 0.2
15,PKTM,≤ 0.2
16,KRMY,≤ 0.2
17,ATDM,≤ 0.2
18,YKTP,≤ 0.2
19,RCME,≤ 0.2
20,PDCC,≤ 0.2
21,SDSD,≤ 0.2
22,CKSS,≤ 0.2
23,LPSW,≤ 0.2
24,NQRY,≤ 0.2

row,Variant,one-hybrid fitness for binding parS DNA
1,SPWS,≤ 0.2
2,TKMP,≤ 0.2
3,CISG,≤ 0.2
4,VIKY,≤ 0.2
5,LWRG,≤ 0.2
6,ATIM,≤ 0.2
7,NTVG,≤ 0.2
8,SSIR,≤ 0.2
9,KLDG,≤ 0.2
10,AIIC,≤ 0.2
11,DNLN,≤ 0.2
12,YWYG,≤ 0.2
13,IVTC,≤ 0.2
14,VAGE,≤ 0.2
15,ESRT,≤ 0.2
16,HMGY,≤ 0.2
17,PSNA,≤ 0.2
18,FWKR,≤ 0.2
19,NSRC,≤ 0.2
20,MLMG,≤ 0.2
21,VKLT,≤ 0.2
22,KLPW,≤ 0.2
23,VHPV,≤ 0.2
24,AVTY,≤ 0.2

row,Variant,one-hybrid fitness for binding parS DNA
1,GRIG,≤ 0.2
2,ATTL,≤ 0.2
3,KYCT,≤ 0.2
4,FMES,≤ 0.2
5,EGHP,0.233
6,TSLN,≤ 0.2
7,EIHG,≤ 0.2
8,QWGH,≤ 0.2
9,RPII,≤ 0.2
10,KGCG,≤ 0.2
11,ISTL,≤ 0.2
12,PIRF,≤ 0.2
13,TIWP,≤ 0.2
14,ESMD,≤ 0.2
15,LRPF,≤ 0.2
16,AMNS,≤ 0.2
17,GKSN,≤ 0.2
18,VRNS,≤ 0.2
19,WSYG,≤ 0.2
20,QYTL,≤ 0.2
21,HPFS,≤ 0.2
22,PISC,≤ 0.2
23,CHSV,≤ 0.2
24,RGDL,≤ 0.2

row,Variant,one-hybrid fitness for binding parS DNA
1,EYIC,≤ 0.2
2,STVN,≤ 0.2
3,QVSW,≤ 0.2
4,ANCA,≤ 0.2
5,CRML,≤ 0.2
6,WSWT,≤ 0.2
7,YSKD,≤ 0.2
8,RGTT,0.624
9,QMVD,≤ 0.2
10,QQCD,≤ 0.2
11,YSNF,≤ 0.2
12,RDLA,≤ 0.2
13,RYPG,0.545
14,PDWL,≤ 0.2
15,HEYG,≤ 0.2
16,RSYI,≤ 0.2
17,MTSS,≤ 0.2
18,LPHF,≤ 0.2
19,GSQN,≤ 0.2
20,PALN,≤ 0.2
21,YNCF,≤ 0.2
22,SVTN,≤ 0.2
23,ANNN,≤ 0.2
24,CHWS,≤ 0.2

row,Variant,one-hybrid fitness for binding parS DNA
1,CLMR,≤ 0.2
2,DTIL,≤ 0.2
3,PCAP,≤ 0.2
4,KHAS,≤ 0.2
5,YDHE,≤ 0.2
6,KIIC,≤ 0.2
7,RVRQ,≤ 0.2
8,AMFL,≤ 0.2
9,QRLP,≤ 0.2
10,MVPW,≤ 0.2
11,MRRL,≤ 0.2
12,KRNF,≤ 0.2
13,HIMY,≤ 0.2
14,YAWL,≤ 0.2
15,DTWR,≤ 0.2
16,VPSH,≤ 0.2
17,FVTT,≤ 0.2
18,NLAR,≤ 0.2
19,QGKI,≤ 0.2
20,MMMS,≤ 0.2
21,RMQG,1.01
22,EVHR,≤ 0.2
23,LHPD,≤ 0.2
24,PHQK,≤ 0.2

row,Variant,one-hybrid fitness for binding parS DNA
1,PKPM,≤ 0.2
2,TRDE,≤ 0.2
3,KQHS,≤ 0.2
4,NMYR,≤ 0.2
5,TIGV,≤ 0.2
6,PARN,≤ 0.2
7,LMKL,≤ 0.2
8,PDMT,≤ 0.2
9,KHLT,≤ 0.2
10,HQMR,≤ 0.2
11,IVRS,≤ 0.2
12,YAII,≤ 0.2
13,AIPS,≤ 0.2
14,EANY,≤ 0.2
15,IRKQ,≤ 0.2
16,ACIG,≤ 0.2
17,KDRC,≤ 0.2
18,CCKV,≤ 0.2
19,WCCR,≤ 0.2
20,AGEN,≤ 0.2
21,MLNF,≤ 0.2
22,SHPS,≤ 0.2
23,LSRR,≤ 0.2
24,KVMN,≤ 0.2

row,Variant,one-hybrid fitness for binding parS DNA
1,DSLY,≤ 0.2
2,NNKR,≤ 0.2
3,FRPW,≤ 0.2
4,VHFT,≤ 0.2
5,HVKT,≤ 0.2
6,GHLN,≤ 0.2
7,QMWM,≤ 0.2
8,TGAG,≤ 0.2
9,KVLC,≤ 0.2
10,MYMA,≤ 0.2
11,DYMF,≤ 0.2
12,ARTE,≤ 0.2
13,TFAS,≤ 0.2
14,EVDR,≤ 0.2
15,RTYA,0.606
16,DSFY,≤ 0.2
17,AMNW,≤ 0.2
18,HHSC,≤ 0.2
